# In PubChem BioAssay AID720708 (National Center for Advancing Translational Sciences (NCATS), 2013):
# The whole screen tested about 360,000 compounds, of which about 660 (0.18%) were called active. This list was built around the results that the source calls inconclusive (neither active nor inactive); the mix of calls is not that of the screen. Calls come from the whole dose curve; as a rule, active = well fitted inhibition curve with a large enough effect; inconclusive = small, poorly fitted or top-dose-only effect; inactive = no such curve, though single readings can be large or run the other way. No potency is given beside an inconclusive call; the fits are too rough.
# Molecular target: Rap guanine nucleotide exchange factor 4 (Homo sapiens) (UniProt Q8WZA2)
# Chain of UniProt Q8WZA2 (Q8WZA2 whole entry, looked up): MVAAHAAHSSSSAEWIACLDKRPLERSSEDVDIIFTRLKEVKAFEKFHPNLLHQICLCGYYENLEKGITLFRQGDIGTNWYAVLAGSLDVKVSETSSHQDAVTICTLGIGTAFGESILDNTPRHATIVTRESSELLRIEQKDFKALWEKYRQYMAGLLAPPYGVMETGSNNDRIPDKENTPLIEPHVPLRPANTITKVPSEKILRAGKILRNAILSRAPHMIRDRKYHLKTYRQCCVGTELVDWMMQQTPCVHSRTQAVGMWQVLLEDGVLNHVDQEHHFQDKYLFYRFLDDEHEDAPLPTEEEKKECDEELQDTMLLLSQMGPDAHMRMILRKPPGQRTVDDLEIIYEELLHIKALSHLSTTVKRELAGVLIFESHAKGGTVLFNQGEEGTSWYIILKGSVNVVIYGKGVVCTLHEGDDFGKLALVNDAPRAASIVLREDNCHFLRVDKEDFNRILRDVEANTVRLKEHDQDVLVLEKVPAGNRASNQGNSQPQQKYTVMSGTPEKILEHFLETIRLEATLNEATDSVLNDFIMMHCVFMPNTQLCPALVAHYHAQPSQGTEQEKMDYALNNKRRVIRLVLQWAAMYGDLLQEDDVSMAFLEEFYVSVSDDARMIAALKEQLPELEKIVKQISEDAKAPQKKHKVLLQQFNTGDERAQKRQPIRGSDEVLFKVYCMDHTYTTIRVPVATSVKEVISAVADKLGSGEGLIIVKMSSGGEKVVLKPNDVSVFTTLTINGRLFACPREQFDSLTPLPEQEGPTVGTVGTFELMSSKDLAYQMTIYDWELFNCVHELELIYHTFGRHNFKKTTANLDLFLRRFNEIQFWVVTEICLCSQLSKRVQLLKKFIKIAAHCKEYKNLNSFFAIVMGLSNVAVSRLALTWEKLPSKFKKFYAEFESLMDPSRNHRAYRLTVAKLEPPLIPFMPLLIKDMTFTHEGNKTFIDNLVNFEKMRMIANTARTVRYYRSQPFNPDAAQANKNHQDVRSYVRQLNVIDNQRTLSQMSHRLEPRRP
# Experiment: qHTS for Antagonist of cAMP-regulated guanine nucleotide exchange factor 2 (EPAC2): primary screen; note: nearly all actives have a fitted effect of over 45% in size
# Conditions: EPAC2 GEF exchange of Rap1B-BODIPY-GDP, fluorescence; activity, negative = inhibition: at 114 µM (top of the series) unless noted
# % is set by controls: 0 for no effect and ±100 for the full control effect; potency is the fitted concentration of half-maximal effect; tags give direction and shape of the fitted curve.
Compound,Potency,"activity, negative = inhibition"
COc1cc([N+](=O)[O-])ccc1NC(=O)COC(=O)CCOc1ccc(C)cc1,"inconclusive [inhibitor, partial curve]",
CCN(CC)CCCN(C(=O)c1ccco1)c1nc(-c2ccc(Cl)cc2)cs1,,inactive: -1.45%
CCn1cc(S(=O)(=O)CC(=O)Nc2ccc3c(c2)OCO3)c2ccccc21,,inactive: 0.412%
Nc1cc(N)c(OCC(F)(F)F)cc1OCC(F)(F)F,,inactive: -5.32%
CCO[C@H]1OC(C(=O)NCc2nc3ccccc3[nH]2)=C[C@@H](c2ccc(Br)cc2)[C@@H]1CCCO,"inconclusive [inhibitor, full curve, poor fit]",
O=C(O)c1ccc(-c2nc(-c3cccc(C(F)(F)F)c3)cs2)cc1,"inconclusive [inhibitor, full curve, poor fit]",
C=CCn1c(C)cc(C2=NNC(=Nc3ccc(C)cc3)SC2)c1C,"inconclusive [inhibitor, single point]",
CCN(CC(=O)Nc1c(F)cccc1F)C(=O)c1ccc(-c2ccc(C(C)=O)cc2)o1,"inconclusive [inhibitor, full curve]",
Cc1ccc(/C=C/C(=O)Nc2ccc([N+](=O)[O-])cc2)o1,,inactive: -0.893%
Cc1ccccc1NS(=O)(=O)c1ccc2oc(=O)ccc2c1,"inconclusive [inhibitor, partial curve]",
OC(CN1CCN(C(c2ccccc2)c2ccccc2)CC1)c1ccc(Br)cc1 (stereo not given),,inactive: 0.54%
CC1(C(=O)NCc2ccc(C(F)(F)F)cc2)CCN1Cc1cc2ccccc2o1 (stereo not given),"inconclusive [inhibitor, partial curve]",
COc1ccccc1NS(=O)(=O)c1ccc2ccccc2c1,active: 12.6 µM,
C=CCn1c(SCC(=O)Nc2cc(Cl)ccc2C(=O)O)nc2sc(C)c(C)c2c1=O,"inconclusive [inhibitor, partial curve]",
CCOC(=O)N/N=C/c1ccccc1F,,inactive: 11%
CC1(C(=O)Nc2ccc3nc[nH]c3c2)CCN1C(=O)Cc1ccc(-c2ccccc2)cc1 (stereo not given),"inconclusive [inhibitor, single point]",
O=Cc1ccc(-c2cccc(C(=O)O)c2)o1,,inactive: 19.1%
O=C(O)c1ccc(Cl)c(S(=O)(=O)N(Cc2ccccc2)c2ccccc2)c1,,inactive: -17.5%
C/C(=N\NC(=S)NC1CCCCC1)c1ccc(OC(F)F)cc1OC(F)F,"inconclusive [inhibitor, full curve, poor fit]",
Cc1ccc2nc(-c3ccc(NC(=O)COCC(=O)O)cc3)sc2c1,"inconclusive [inhibitor, partial curve]",
